Source: the supplement of paper PMC8728848
The other results are listed elsewhere or left out.

What was measured:
Experiment in all cases: glycan array binding signal (z-score within array); higher = stronger binding
Conditions in all cases: glycan notation: IUPAC condensed, linker removed
[1] = target: GlcA(b1-6)Gal
In short: (§1)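 Glycan array data came from 3228 arrays in the Consortium for Functional Glycomics database, and only arrays with an available protein sequence were kept. Glycan names were put into IUPAC-condensed notation, and columns mapping to the same glycan were averaged. The binding signal is a within-array Z-score, averaged across arrays of one protein sequence run at different concentrations or buffers and across linkers. A negative Z-score can be read as non-binding.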

[2] = target: GlcNAc(a1-3)Gal(b1-4)GlcNAc
In short: as §1

[3] = target: GlcNAc(a1-4)Gal(b1-3)GlcNAc
In short: as §1

[4] = target: GlcNAc(a1-4)Gal(b1-4)GalNAc
In short: as §1

[5] = target: GlcNAc(a1-4)Gal(b1-4)GlcNAc
In short: as §1

[6] = target: GlcNAc(a1-4)Gal(b1-4)GlcNAc(b1-3)Gal(b1-4)Glc
In short: as §1

[7] = target: GlcNAc(a1-4)Gal(b1-4)GlcNAc(b1-3)Gal(b1-4)GlcNAc
In short: as §1

[8] = target: GlcNAc(a1-4)Gal(b1-4)GlcNAc(b1-3)Gal(b1-4)GlcNAc(b1-3)Gal(b1-4)GlcNAc
In short: as §1

[9] = target: GlcNAc(a1-4)Gal(b1-4)GlcNAc(b1-3)Gal(b1-4)[Fuc(a1-3)]GlcNAc(b1-3)Gal(b1-4)[Fuc(a1-3)]GlcNAc
In short: as §1

[10] = target: GlcNAc(a1-6)Gal(b1-4)GlcNAc
In short: as §1

[11] = target: GlcNAc(b1-2)Gal(b1-3)GalNAc
In short: as §1

[12] = target: GlcNAc(b1-2)Man(a1-3)[GlcNAc(b1-2)Man(a1-6)]Man(b1-4)GlcNAc(b1-4)GlcNAc
In short: as §1

[13] = target: GlcNAc(b1-2)Man(a1-3)[GlcNAc(b1-2)Man(a1-6)]Man(b1-4)GlcNAc(b1-4)[Fuc(a1-6)]GlcNAc
In short: as §1

[14] = target: GlcNAc(b1-2)[GlcNAc(b1-4)]Man(a1-3)[GlcNAc(b1-2)Man(a1-6)]Man(b1-4)GlcNAc(b1-4)GlcNAc
In short: as §1

[15] = target: GlcNAc(b1-3)Gal
In short: as §1

[16] = target: GlcNAc(b1-3)Gal(b1-3)GalNAc
In short: as §1

[17] = target: GlcNAc(b1-3)Gal(b1-4)Glc
In short: as §1

[18] = target: GlcNAc(b1-3)Gal(b1-4)GlcNAc
In short: as §1

[19] = target: GlcNAc(b1-3)Gal(b1-4)GlcNAc(b1-3)Gal(b1-4)GlcNAc
In short: as §1

[20] = target: GlcNAc(b1-3)GalNAc
In short: as §1

[21] = target: GlcNAc(b1-3)Man
In short: as §1

[22] = target: GlcNAc(b1-3)[GlcNAc(b1-4)][GlcNAc(b1-6)]GlcNAc
In short: as §1

[23] = target: GlcNAc(b1-3)[GlcNAc(b1-6)]Gal(b1-4)GlcNAc
In short: as §1

[24] = target: GlcNAc(b1-3)[GlcNAc(b1-6)]GalNAc
In short: as §1

[25] = target: GlcNAc(b1-4)Gal(b1-4)GlcNAc
In short: as §1

[26] = target: GlcNAc(b1-4)GlcNAc
In short: as §1

[27] = target: GlcNAc(b1-4)GlcNAc(b1-4)GlcNAc
In short: as §1

[28] = target: GlcNAc(b1-4)GlcNAc(b1-4)GlcNAc(b1-4)GlcNAc(b1-4)GlcNAc
In short: as §1

[29] = target: GlcNAc(b1-4)GlcNAc(b1-4)GlcNAc(b1-4)GlcNAc(b1-4)GlcNAc(b1-4)GlcNAc
In short: as §1

[30] = target: GlcNAc(b1-4)[GlcNAc(b1-6)]GalNAc
In short: as §1

[31] = target: GlcNAc(b1-6)Gal(b1-4)GlcNAc
In short: as §1

[32] = target: GlcNAc(b1-6)GalNAc
In short: as §1

[33] = target: GlcNAc3Prop(b1-4)GlcNAc
In short: as §1

[34] = target: GlcNAc6S(b1-3)Gal(b1-4)GlcNAc
In short: as §1

[35] = target: Kdn(a2-3)Gal(b1-3)GalNAc
In short: as §1

[36] = target: Kdn(a2-3)Gal(b1-3)GlcNAc
In short: as §1

[37] = target: Kdn(a2-3)Gal(b1-4)Glc
In short: as §1

[38] = target: Kdn(a2-3)Gal(b1-4)GlcNAc
In short: as §1

[39] = target: Kdn(a2-3)Gal(b1-4)[Fuc(a1-3)]GlcNAc
In short: as §1

[40] = target: Kdn(a2-6)Gal(b1-4)GlcNAc
In short: as §1

[41] = target: Man(a1-2)Man(a1-2)Man(a1-3)Man
In short: as §1

[42] = target: Man(a1-2)Man(a1-2)Man(a1-6)[Man(a1-3)]Man
In short: as §1

[43] = target: Man(a1-2)Man(a1-3)Man
In short: as §1

[44] = target: Man(a1-2)Man(a1-3)[Man(a1-2)Man(a1-6)]Man
In short: as §1

[45] = target: Man(a1-2)Man(a1-3)[Man(a1-2)Man(a1-6)]Man(a1-6)[Man(a1-2)Man(a1-2)Man(a1-3)]Man
In short: as §1

[46] = target: Man(a1-2)Man(a1-3)[Man(a1-2)Man(a1-6)]Man(a1-6)[Man(a1-2)Man(a1-2)Man(a1-3)]Man(b1-4)GlcNAc(b1-4)GlcNAc
In short: as §1

[47] = target: Man(a1-2)Man(a1-3)[Man(a1-6)]Man(a1-6)[Man(a1-2)Man(a1-3)]Man(b1-4)GlcNAc(b1-4)GlcNAc
In short: as §1

[48] = target: Man(a1-2)Man(a1-6)[Man(a1-3)]Man(a1-6)[Man(a1-2)Man(a1-2)Man(a1-3)]Man
In short: as §1

[49] = target: Man(a1-2)Man(a1-6)[Man(a1-3)]Man(a1-6)[Man(a1-2)Man(a1-2)Man(a1-3)]Man(b1-4)GlcNAc(b1-4)GlcNAc
In short: as §1

[50] = target: Man(a1-3)[Man(a1-6)]Man
In short: as §1

[51] = target: Man(a1-3)[Man(a1-6)]Man(a1-6)[Man(a1-2)Man(a1-3)]Man(b1-4)GlcNAc(b1-4)GlcNAc
In short: as §1

[52] = target: Man(a1-3)[Man(a1-6)]Man(a1-6)[Man(a1-3)]Man
In short: as §1

[53] = target: Man(a1-3)[Man(a1-6)]Man(a1-6)[Man(a1-3)]Man(b1-4)GlcNAc(b1-4)GlcNAc
In short: as §1

[54] = target: Man(a1-3)[Man(a1-6)]Man(b1-4)GlcNAc(b1-4)GlcNAc
In short: as §1

[55] = target: Man(a1-6)Man
In short: as §1

[56] = target: Man(b1-4)GlcNAc
In short: as §1

[57] = target: Neu5Ac(a2-3)Gal
In short: as §1

[58] = target: Neu5Ac(a2-3)Gal(b1-3)GalNAc
In short: as §1

[59] = target: Neu5Ac(a2-3)Gal(b1-3)GalNAc(b1-3)Gal(a1-4)Gal(b1-4)Glc
In short: as §1

[60] = target: Neu5Ac(a2-3)Gal(b1-3)GalNAc(b1-3)Gal(b1-4)GlcNAc
In short: as §1

[61] = target: Neu5Ac(a2-3)Gal(b1-3)GalNAc(b1-4)[Neu5Ac(a2-3)]Gal(b1-4)Glc
In short: as §1

[62] = target: Neu5Ac(a2-3)Gal(b1-3)GalNAc6S
In short: as §1

[63] = target: Neu5Ac(a2-3)Gal(b1-3)GlcNAc
In short: as §1

[64] = target: Neu5Ac(a2-3)Gal(b1-3)GlcNAc(b1-2)Man(a1-3)[Neu5Ac(a2-3)Gal(b1-3)GlcNAc(b1-2)Man(a1-6)]Man(b1-4)GlcNAc(b1-4)GlcNAc
In short: as §1

[65] = target: Neu5Ac(a2-3)Gal(b1-3)GlcNAc(b1-3)Gal(b1-3)GlcNAc
In short: as §1

[66] = target: Neu5Ac(a2-3)Gal(b1-3)GlcNAc(b1-3)Gal(b1-4)GlcNAc
In short: as §1

[67] = target: Neu5Ac(a2-3)Gal(b1-3)GlcNAc(b1-3)GalNAc
In short: as §1

[68] = target: Neu5Ac(a2-3)Gal(b1-3)GlcNAc6S
In short: as §1

[69] = target: Neu5Ac(a2-3)Gal(b1-3)[Fuc(a1-4)]GlcNAc
In short: as §1

[70] = target: Neu5Ac(a2-3)Gal(b1-3)[Fuc(a1-4)]GlcNAc(b1-3)Gal(b1-3)[Fuc(a1-4)]GlcNAc
In short: as §1

[71] = target: Neu5Ac(a2-3)Gal(b1-3)[Fuc(a1-4)]GlcNAc(b1-3)Gal(b1-4)[Fuc(a1-3)]GlcNAc
In short: as §1

[72] = target: Neu5Ac(a2-3)Gal(b1-3)[Neu5Ac(a2-3)Gal(b1-4)]GlcNAc
In short: as §1

B1: Tachylectin-2 (Tachypleus tridentatus), TAL2_TACTR (protein)
chain: VGGESMLRGVYQDKFYQGTYPQNKNDNWLARATLIGKGGWSNFKFLFLSPGGELYGVLNDKIYKGTPPTHDNDNWMGRAKKIGNGGWNQFQFLFFDPNGYLYAVSKDKLYKASPPQSDTDNWIARATEIGSGGWSGFKFLFFHPNGYLYAVHGQQFYKALPPVSNQDNWLARATKIGQGGWDTFKFLFFSSVGTLFGVQGGKFYEDYPPSYAHDNWLARAKLIGNGGWDDFRFLFF
glycan array binding signal (z-score) [1]: -0.294
glycan array binding signal (z-score) [2]: 3.09
glycan array binding signal (z-score) [3]: 3.43
glycan array binding signal (z-score) [4]: 2.81
glycan array binding signal (z-score) [5]: 2.22
glycan array binding signal (z-score) [6]: 3.7
glycan array binding signal (z-score) [7]: 3.52
glycan array binding signal (z-score) [8]: 3.96
glycan array binding signal (z-score) [9]: 3.69
glycan array binding signal (z-score) [10]: 4.99
glycan array binding signal (z-score) [11]: -0.195
glycan array binding signal (z-score) [12]: 0.696
glycan array binding signal (z-score) [13]: -0.292
glycan array binding signal (z-score) [14]: -0.295
glycan array binding signal (z-score) [15]: -0.318
glycan array binding signal (z-score) [16]: -0.349
glycan array binding signal (z-score) [17]: 1.74
glycan array binding signal (z-score) [18]: 0.651
glycan array binding signal (z-score) [19]: -0.231
glycan array binding signal (z-score) [20]: -0.348
glycan array binding signal (z-score) [21]: -0.096
glycan array binding signal (z-score) [22]: -0.413
glycan array binding signal (z-score) [23]: 2.19
glycan array binding signal (z-score) [24]: -0.283
glycan array binding signal (z-score) [25]: 1.17
glycan array binding signal (z-score) [26]: 0.169
glycan array binding signal (z-score) [27]: 0.09
glycan array binding signal (z-score) [28]: 0.004
glycan array binding signal (z-score) [29]: -0.051
glycan array binding signal (z-score) [30]: 0.045
glycan array binding signal (z-score) [31]: -0.26
glycan array binding signal (z-score) [32]: 1.42
glycan array binding signal (z-score) [33]: -0.213
glycan array binding signal (z-score) [34]: -0.284
glycan array binding signal (z-score) [35]: -0.296
glycan array binding signal (z-score) [36]: -0.365
glycan array binding signal (z-score) [37]: -0.295
glycan array binding signal (z-score) [38]: -0.372
glycan array binding signal (z-score) [39]: -0.297
glycan array binding signal (z-score) [40]: -0.295
glycan array binding signal (z-score) [41]: -0.386
glycan array binding signal (z-score) [42]: -0.33
glycan array binding signal (z-score) [43]: -0.198
glycan array binding signal (z-score) [44]: -0.251
glycan array binding signal (z-score) [45]: -0.321
glycan array binding signal (z-score) [46]: -0.329
glycan array binding signal (z-score) [47]: -0.173
glycan array binding signal (z-score) [48]: -0.195
glycan array binding signal (z-score) [49]: -0.358
glycan array binding signal (z-score) [50]: -0.313
glycan array binding signal (z-score) [51]: -0.302
glycan array binding signal (z-score) [52]: -0.344
glycan array binding signal (z-score) [53]: -0.235
glycan array binding signal (z-score) [54]: -0.246
glycan array binding signal (z-score) [55]: -0.362
glycan array binding signal (z-score) [56]: -0.282
glycan array binding signal (z-score) [57]: -0.369
glycan array binding signal (z-score) [58]: -0.249
glycan array binding signal (z-score) [59]: -0.424
glycan array binding signal (z-score) [60]: -0.029
glycan array binding signal (z-score) [61]: -0.093
glycan array binding signal (z-score) [62]: -0.226
glycan array binding signal (z-score) [63]: -0.313
glycan array binding signal (z-score) [64]: -0.303
glycan array binding signal (z-score) [65]: -0.543
glycan array binding signal (z-score) [66]: -0.296
glycan array binding signal (z-score) [67]: -0.294
glycan array binding signal (z-score) [68]: -0.057
glycan array binding signal (z-score) [69]: -0.302
glycan array binding signal (z-score) [70]: -0.295
glycan array binding signal (z-score) [71]: -0.362
glycan array binding signal (z-score) [72]: -0.319
